We go through 32 sequences from article PMC12820563.

Some of the results follow. The list includes weakly bound sequences.

This test deals with T1, MBP-FoxP3dN (UniProt Q99JB6).
T1 sequence: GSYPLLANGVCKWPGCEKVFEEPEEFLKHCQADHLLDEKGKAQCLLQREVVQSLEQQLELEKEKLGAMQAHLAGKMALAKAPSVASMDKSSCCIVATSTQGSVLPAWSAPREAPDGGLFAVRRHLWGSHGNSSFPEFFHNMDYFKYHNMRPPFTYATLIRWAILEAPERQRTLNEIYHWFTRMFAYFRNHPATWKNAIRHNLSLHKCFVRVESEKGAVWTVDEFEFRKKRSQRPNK
The experiment in a line: PD-seq (MBP pull-down with sequencing). The note with it: 20 mM Tris-HCl pH 7.5, 100 mM NaCl, 1.5 mM MgCl2, 0.4 uM protein, 0.1 uM dsDNA library, 30 min, room temperature, amylose pull-down; high values mean tight binding; double strand, one strand shown.
On to “GATGATTGTTCTCCCAGCTGATGAATTCATGGCGTCGAGTAAACAAATTTTCCTAATCTTTCTGTTCAAGCGCCATCTAC”, for which the binding signal (RPM ratio (pull-down/input)) worked out at 0.668. In the case of “GATGATTGTTCTCCCAGCTGATGAATTATGCGTTTCGAGTAAACAAATTTTCCTAATCTTTCTGTTCAAGCGCCATCTAC”, the binding signal (RPM ratio (pull-down/input)) worked out at 4.66.

Turning to “GATGATTGTTCTCCCAGCTGATGAATTCGCTCCCTCGAGTAAACAAATTTTCCTAATCTTTCTGTTCAAGCGCCATCTAC”, the binding signal (RPM ratio (pull-down/input)) was 0.309.

As to “GATGATTGTTCTCCCAGCTGATGAATTCACATGGTCGAGTAAACAAATTTTCCTAATCTTTCTGTTCAAGCGCCATCTAC”, the binding signal (RPM ratio (pull-down/input)) worked out at 0.35. For the sequence “GATGATTGTTCTCCCAGCTGATGAATTGTATCTTTCGAGTAAACAAATTTTCCTAATCTTTCTGTTCAAGCGCCATCTAC”, the binding signal (RPM ratio (pull-down/input)) worked out at 1.68. Consider “GATGATTGTTCTCCCAGCTGATGAATTCTAAAATTCGAGTAAACAAATTTTCCTAATCTTTCTGTTCAAGCGCCATCTAC”, for which the binding signal (RPM ratio (pull-down/input)) was determined as 0.271. As for “GATGATTGTTCTCCCAGCTGATGAATTCACGTGTTCGAGTAAACAAATTTTCCTAATCTTTCTGTTCAAGCGCCATCTAC”, the binding signal (RPM ratio (pull-down/input)) was determined as 0.58. With “GATGATTGTTCTCCCAGCTGATGAATTGCTAAGTTCGAGTAAACAAATTTTCCTAATCTTTCTGTTCAAGCGCCATCTAC”, the binding signal (RPM ratio (pull-down/input)) came to 0.518. In the case of “GATGATTGTTCTCCCAGCTGATGAATTTCGGCCTTCGAGTAAACAAATTTTCCTAATCTTTCTGTTCAAGCGCCATCTAC”, the binding signal (RPM ratio (pull-down/input)) came out at 1.74.

For “GATGATTGTTCTCCCAGCTGATGAATTCGTCCTTTCGAGTAAACAAATTTTCCTAATCTTTCTGTTCAAGCGCCATCTAC”, the binding signal (RPM ratio (pull-down/input)) stood at 0.547. In the case of “GATGATTGTTCTCCCAGCTGATGAATTAAAGCAATCGAGTAAACAAATTTTCCTAATCTTTCTGTTCAAGCGCCATCTAC”, the binding signal (RPM ratio (pull-down/input)) came out at 2.51. Turning to “GATGATTGTTCTCCCAGCTGATGAATTCAAGTCTTCGAGTAAACAAATTTTCCTAATCTTTCTGTTCAAGCGCCATCTAC”, the binding signal (RPM ratio (pull-down/input)) came to 0.346. In the case of “GATGATTGTTCTCCCAGCTGATGAATTCAAGAACTCGAGTAAACAAATTTTCCTAATCTTTCTGTTCAAGCGCCATCTAC” it was 0.199; in that of “GATGATTGTTCTCCCAGCTGATGAATTCGGCGGTTCGAGTAAACAAATTTTCCTAATCTTTCTGTTCAAGCGCCATCTAC”, 0.542. Regarding “GATGATTGTTCTCCCAGCTGATGAATTGCATCAGTCGAGTAAACAAATTTTCCTAATCTTTCTGTTCAAGCGCCATCTAC”, the binding signal (RPM ratio (pull-down/input)) was found to be 2.35. Turning to “GATGATTGTTCTCCCAGCTGATGAATTTTATGGGTCGAGTAAACAAATTTTCCTAATCTTTCTGTTCAAGCGCCATCTAC”, the binding signal (RPM ratio (pull-down/input)) came to 0.539. On to “GATGATTGTTCTCCCAGCTGATGAATTGTGGTTTTCGAGTAAACAAATTTTCCTAATCTTTCTGTTCAAGCGCCATCTAC”, for which the binding signal (RPM ratio (pull-down/input)) is 2.03. On to “GATGATTGTTCTCCCAGCTGATGAATTCAAGTGCTCGAGTAAACAAATTTTCCTAATCTTTCTGTTCAAGCGCCATCTAC”, for which the binding signal (RPM ratio (pull-down/input)) was found to be 0.454. As to “GATGATTGTTCTCCCAGCTGATGAATTGCGGCTATCGAGTAAACAAATTTTCCTAATCTTTCTGTTCAAGCGCCATCTAC”, the binding signal (RPM ratio (pull-down/input)) turned out to be 1.2. Then “GATGATTGTTCTCCCAGCTGATGAATTGGGACTGTCGAGTAAACAAATTTTCCTAATCTTTCTGTTCAAGCGCCATCTAC”, with 0.673; and “GATGATTGTTCTCCCAGCTGATGAATTCCGCGGGTCGAGTAAACAAATTTTCCTAATCTTTCTGTTCAAGCGCCATCTAC”, with 0.668. Turning to “GATGATTGTTCTCCCAGCTGATGAATTAATTTCCTCGAGTAAACAAATTTTCCTAATCTTTCTGTTCAAGCGCCATCTAC”, the binding signal (RPM ratio (pull-down/input)) stood at 0.876. Then “GATGATTGTTCTCCCAGCTGATGAATTATACTGTTCGAGTAAACAAATTTTCCTAATCTTTCTGTTCAAGCGCCATCTAC”, with 0.749. Then “GATGATTGTTCTCCCAGCTGATGAATTAGGCTCTTCGAGTAAACAAATTTTCCTAATCTTTCTGTTCAAGCGCCATCTAC”, with 0.62. For “GATGATTGTTCTCCCAGCTGATGAATTATTTCTTTCGAGTAAACAAATTTTCCTAATCTTTCTGTTCAAGCGCCATCTAC”, the binding signal (RPM ratio (pull-down/input)) came out at 0.419.

For the sequence “GATGATTGTTCTCCCAGCTGATGAATTCTACGCTTCGAGTAAACAAATTTTCCTAATCTTTCTGTTCAAGCGCCATCTAC”, the binding signal (RPM ratio (pull-down/input)) was found to be 0.404.

Take “GATGATTGTTCTCCCAGCTGATGAATTTGGCTGGTCGAGTAAACAAATTTTCCTAATCTTTCTGTTCAAGCGCCATCTAC”: the binding signal (RPM ratio (pull-down/input)) was 0.672. In the case of “GATGATTGTTCTCCCAGCTGATGAATTCTCAGTGTCGAGTAAACAAATTTTCCTAATCTTTCTGTTCAAGCGCCATCTAC”, the binding signal (RPM ratio (pull-down/input)) worked out at 0.363.

Take “GATGATTGTTCTCCCAGCTGATGAATTGCGCGCCTCGAGTAAACAAATTTTCCTAATCTTTCTGTTCAAGCGCCATCTAC”: the binding signal (RPM ratio (pull-down/input)) is 2.33.

Consider “GATGATTGTTCTCCCAGCTGATGAATTCTTTGTATCGAGTAAACAAATTTTCCTAATCTTTCTGTTCAAGCGCCATCTAC”, for which the binding signal (RPM ratio (pull-down/input)) worked out at 0.57. Regarding “GATGATTGTTCTCCCAGCTGATGAATTGTCTCCATCGAGTAAACAAATTTTCCTAATCTTTCTGTTCAAGCGCCATCTAC”, the binding signal (RPM ratio (pull-down/input)) worked out at 0.441.

For “GATGATTGTTCTCCCAGCTGATGAATTTGGTGGATCGAGTAAACAAATTTTCCTAATCTTTCTGTTCAAGCGCCATCTAC”, the binding signal (RPM ratio (pull-down/input)) was 0.677.
